The values below come from the RNAGym collection of RNA variant scans (doi:10.7554/elife.90254).

The source gives no read counts; variants with many changes may rest on few reads.

To fix the notation:
B1: LINE1-mini (parent)
chain: GGCAGAGCUCAACACAGCGUGGCAAAGUGGCUGUGGCUAGACUGCC

Variants of B1 are the subject of this data set. Put plainly: self-cleavage, relative activity (ratio to wild type); higher = more cleavage; in vitro, sequencing; the parent is a self-cleaving ribozyme.
A4C C13A C31U: the self-cleavage came to 0.17. As for C3U G21C G33C C37A, the self-cleavage was 0.13. Consider C3U G5C A12U A25G, for which the self-cleavage worked out at 0.01. As for A4C C8A C10A A11C A25U, the self-cleavage is 0.08. The value for A4C C10U C18G A41U U43C was 0.03. Turning to A4C C15U A25G G44C, the self-cleavage worked out at 0.11. The value for C3U C8U G40U was 0.25; that for C3U C8U G40C was 0.07; that for C3U G19A G36U was 0.04.

Take C3U C10A A26U G33U: the self-cleavage is 0.04.

In the case of C3U C13U A24U A25U C45G, the self-cleavage was determined as 0.2. On to C3U C10A A12U C23U G27U, for which the self-cleavage is 0.02. As for C3U G5C G29U C31U U32C, the self-cleavage turned out to be 0.05. In the case of C3U C8G G19U U28G, the self-cleavage came out at 0.04. As for C3U A24U A25C, the self-cleavage was found to be 0.26. As for C3U G22C G40A, the self-cleavage was 0.04. A4C A12G G40U: the self-cleavage was 0.38.

For the variant A4C C8A G29C G40A, the self-cleavage came to 0.07. Under A4C A11G G17U C18A G33U C45A stands 0.01. In the case of C3U G5U G7A U28G G29C C46A, the self-cleavage was found to be 0.03.

For the variant C3U C18A A41U U43G, the self-cleavage is 0.12.

With C3U C8U G17C U34A, the self-cleavage turned out to be 0.21. For the variant C3U C8A C23G A24G G44A, the self-cleavage was 0.04.

For C3U G5A A25U G36A A39G, the self-cleavage amounted to 0.09. The value for C3U G7A A25C U38A was 0.07; that for C3U C8U U9C U32G U34G C37A U38G was 0.02. On to C3U U9A U20G A41U, for which the self-cleavage is 0.02. Consider C3U U9G A14C U20C G30A G33A G40A, for which the self-cleavage was determined as 0.03. The value for A4C C18U G27U U38A U43A was 0.15; that for C3U G21A U38C was 2.2; that for C3U G22A C31A C45U was 0.1.

As to C3U G7A G19U G21A G30U, the self-cleavage was found to be 0.2. Consider A4C A11C C15U C31G G36C A39G G44C, for which the self-cleavage was 0. For the variant C3U G5A G40A, the self-cleavage was found to be 0.06.

Consider A4C C10A U20A A26G, for which the self-cleavage came out at 0.02. For the variant A4C A25C A26U G33U, the self-cleavage was found to be 0.05. Regarding A4C C31U A39G A41U, the self-cleavage was found to be 0.01. As for A4C C23A C31U C46G, the self-cleavage was 0.1. As to A4C A12C A14G, the self-cleavage was 0.02. Take C3U C23G G36C: the self-cleavage was determined as 0.14. Take C3U C10A A12G: the self-cleavage came to 0.03.

On to A4C C13A U28C G40U, for which the self-cleavage came to 0.85. For the variant A4C C18G U28A G44C C45U, the self-cleavage turned out to be 0.02. As for C3U C8G C15A A16G, the self-cleavage came to 0.23. Turning to C3U A16C A24G, the self-cleavage turned out to be 0.02. As to C3U C23U C46U, the self-cleavage was determined as 0.2. The value for A4C A12U C13A G19U G44C was 0.03. Turning to C3U G7U C8G, the self-cleavage stood at 0.06. On to C3U C23U C31A C42G, for which the self-cleavage stood at 0.06. Take A4C C10A A14U: the self-cleavage worked out at 0.

C3U C23G C37G U38C A39G: the self-cleavage was determined as 0.05. The value for C3U A16C A26C C45A was 0; that for C3U G22A U32C was 0.32.

On to C3U C18A C23A G30C A39G A41G U43A, for which the self-cleavage was 0.02. Under C3U G7U G36C G40U U43A G44C stands 0.06; under C3U U9A A39U A41G, 0.1; under C3U G5C C8G G29A G40U C42A, 0.08. For C3U C8A C42G, the self-cleavage was determined as 0.29. Consider C3U G5C C8G A16C A26G G27U, for which the self-cleavage stood at 0.13.

With C3U C23A G29U U38C U43C, the self-cleavage came out at 0.21. For C3U G7U U32A U34C, the self-cleavage is 0.22. Under A4C A11U C23A A41G U43G stands 0.01; under A4C A12U C15G A39U, 0.04. With C3U U9G A24G G30U G36U A39U C45U, the self-cleavage was 0.43.

As to C3U G5U G19U U20C U38A G40A, the self-cleavage was 0.05. Under A4C A26U G33U stands 0.13.

Regarding C3U G7A U9C C13A C18A G19A G30C C31U, the self-cleavage came out at 0.03. Under C3U C8A C10A G27U G30U stands 0.03; under C3U U28A G29U C31U G33C U34A, 0.05; under A4C A14U G27A, 0.07. On to A4C C23A U32A U34C, for which the self-cleavage was 0.08. Regarding C3U C10A A11C G29A U32G, the self-cleavage was 0.01. For C3U G21U U38G A41G, the self-cleavage was determined as 0.02.

Regarding C3U U28A C31U A39G, the self-cleavage was 0.06. Regarding C3U G7U C18U U43G, the self-cleavage was found to be 1.17. For C3U G19U G33A C46U, the self-cleavage was 0.05. For the variant C3U C15U G44U, the self-cleavage stood at 0.04. Under C3U G35C C46U stands 0.02; under A4C A6U G29A, 0.04; under A4C A16C G33U G40U G44A, 0.12.

On to C3U C23A U34A G36C, for which the self-cleavage amounted to 0.05.

On to C3U U20A G29U C31U U32A C42G, for which the self-cleavage worked out at 0.02.

As for A4C C23A G35C G44U, the self-cleavage was determined as 0.3. On to A4C C8A U9A G35U C45A, for which the self-cleavage amounted to 0.31.

Turning to C3U U28A U34G C42G, the self-cleavage was 0.02.

Turning to C3U C10U G17A G21U G40U U43A, the self-cleavage turned out to be 0.02.

On to C3U C8G U9C C23U U38A, for which the self-cleavage came out at 0.01.

Regarding C3U G5C A11U G22U C31A, the self-cleavage came to 0.04. Regarding C3U G17A U34C, the self-cleavage was determined as 0.06. As to C3U C8A G19A, the self-cleavage was 0.37. On to C3U C8A G19U, for which the self-cleavage is 0.05. Regarding A4C A6C A41C, the self-cleavage was 0. As to A4C A41U C45G, the self-cleavage was found to be 0.29. The value for C3U A24C A26G G35U A39U was 0.03; that for A4C A11C G30U was 0.03. As to C3U C10A G27C G36U, the self-cleavage is 0.02. For C3U C18G C46U, the self-cleavage turned out to be 0.07. For the variant C3U C8G A25C G40C U43G, the self-cleavage was 0.46. For C3U G35U A39U, the self-cleavage came out at 0.24. As to A4C C8U G35U, the self-cleavage turned out to be 0.05. Turning to C3U G5C G27U G29C U32G, the self-cleavage stood at 0.07. Regarding C3U C10A C23A, the self-cleavage is 0.18. With A4C C13A G19A A25U, the self-cleavage was 0.03. As to C3U C15U G29C G30C C42U, the self-cleavage turned out to be 0.1.

Take C3U A14G G44C: the self-cleavage came out at 0.09. Take A4C A11U C13G U28G G30U C31U G33U: the self-cleavage is 0.01. A4C A6U C10A C15A G19C A25U C37U: the self-cleavage turned out to be 0.02. As for C3U U9A A25G U34G, the self-cleavage is 0.15. The value for A4C A11C A14G U32A was 0.09; that for A4C C23U A25C C45U was 0.12; that for A4C A16C G22U G40C was 0.02. Regarding C3U C15G A41C C46U, the self-cleavage came to 0. Regarding C3U G7C C31A, the self-cleavage was 0.01. The value for C3U G7A A11C was 0.01. Take C3U A16C G30A C37A U43G G44A: the self-cleavage is 0.04. The value for C3U C13A G27U G30A was 0.04; that for C3U G36A G44C was 0.15. A4C A6G C10A C31G: the self-cleavage is 0.07. The value for C3U G21A U28A was 0.42; that for C3U G5A G17A G35U G36A was 0.09. Turning to C3U U9G U20A G22A C37G G40A, the self-cleavage is 0.08. As to C3U A16C G21U A26C, the self-cleavage was found to be 0.05. Under C3U G19A C37U stands 0.06.

A4C C8U C15G: the self-cleavage came out at 0.23. With C3U A24G A41U C45G, the self-cleavage turned out to be 0.4. On to C3U C18A G21A A25U, for which the self-cleavage is 0.14. A4C A25U G33U U38C: the self-cleavage was determined as 0.08. Turning to A4C C10A A12U G30U, the self-cleavage amounted to 0. As to C3U A24C A26U G27C C46A, the self-cleavage was found to be 0.08. On to C3U C31G C46G, for which the self-cleavage worked out at 0.03. On to C3U U9A C13U G21A G30C C37G U38A C46A, for which the self-cleavage was 0.5.

Turning to C3U C15A G36U, the self-cleavage is 0.09. Consider A4C A11U A12C A39U, for which the self-cleavage came to 0.02.

Take C3U U9G G19C G40A C46G: the self-cleavage stood at 0.02. Regarding C3U C8U G22C G27U, the self-cleavage is 0.08.

For the variant A4C C23U G44A, the self-cleavage amounted to 0.23.

C3U G5A A12C G17A: the self-cleavage was found to be 0.06. As to A4C C8U A24C G33U G36C, the self-cleavage was determined as 0.01.

Take C3U G7U C10U C23U: the self-cleavage was found to be 0.03. Consider C3U U20A G30C, for which the self-cleavage is 0.17. With A4C C8A G17U G21A, the self-cleavage was found to be 0.24. In the case of C3U C15U G17C, the self-cleavage was 0.02. C3U G5C G29C: the self-cleavage worked out at 0.05. A4C C18A A39C C46U: the self-cleavage amounted to 0.03. Consider A4C C10G G19A U20G G29C G44U, for which the self-cleavage turned out to be 0.01. Take C3U C23G A24U G27A G44U C46U: the self-cleavage amounted to 0.04. As for C3U C13A G35U G40U A41C, the self-cleavage is 0.05. For C3U G21A U28C G33A C46G, the self-cleavage was 0.13. C3U C8U A24G G36U A41C U43G: the self-cleavage came to 0.84. Under A4C A12C G33C stands 0; under C3U U9A A12C, 0.04.

With C3U G17C C45A, the self-cleavage was 0.03. On to C3U C18U U20C, for which the self-cleavage amounted to 0.39. On to A4C A12U C13U A26G, for which the self-cleavage turned out to be 0.03. As for C3U A16U C23U G33U, the self-cleavage stood at 0.06. Consider C3U G33A C45G, for which the self-cleavage was 0.11. The value for A4C C18A G36C was 0.02. Consider C3U G5C A12U A16C C18U, for which the self-cleavage worked out at 0.04. Take C3U C10U A14G: the self-cleavage amounted to 0.04. The value for C3U C13G G19U C37U A39C was 0.03; that for A4C A6G A11G U38A was 0.01. Take C3U G17A G40C: the self-cleavage amounted to 0.03. As to C3U U9A C10G G27U G36C, the self-cleavage came to 0.01.

In the case of C3U A24G G44U C45G, the self-cleavage came out at 0.12. With A4C C8U A11G C18G G27U U32A, the self-cleavage turned out to be 0.01. Regarding A4C C8U A14G, the self-cleavage was determined as 0.04.

For the variant C3U G19U U43A, the self-cleavage worked out at 0.13.
